Measured values as given in ChEMBL document CHEMBL4888484, “Replenishing the malaria drug discovery pipeline: Screening and hit evaluation of the MMV Hit Generation Library 1 (HGL1) against asexual blood stage Plasmodium falciparum ,using a nano luciferase reporter read-out” (2022).
In all, about 4,800 compounds went through this assay and about 410 (8.5%) showed an effect of 50% or more. The list shows a part of the results.

Each compound was assayed on Plasmodium falciparum (assay: Confirmatory screen in NF54 pLDH assay, in single point, at 2uM, 72h). Conditions: timepoint 72 hour.
Type: functional, Erythrocyte

SMILES	% Inhibition
CCN(CCc1ccncc1)S(=O)(=O)c1ccc(N2C(=O)CCS2(=O)=O)cc1C	7%
C=CCN1CCN(c2nccn3nc(-c4ccc(Cl)cc4)cc23)CC1	3%
CCN1c2cc(C(=O)Nc3ccc(OC)cc3OC)ccc2C(=O)N2CCCC[C@H]21	15%
N#Cc1cc(S(=O)(=O)NCCN(C2CC2)S(=O)(=O)c2ccc(Cl)c(C#N)c2)ccc1Cl	86%
COc1cccc(-c2nc3n(c2C(=O)NCC(C)C)CCS3(=O)=O)c1	7%
CC(C)CCNC(=O)c1cnn2c3c(cnc12)CCCC3	-8%
CC1(C)C[C@@H](NC(=O)COc2ccc(CO)cc2)CCO1	10%
Cc1cc(NC(=O)NC(C)C)c2[nH]c(C(=O)N3CCOCC3)c(-c3ccccc3)c2c1	9%
Cc1cc(C)cc(OCC(=O)NCCCN(C)C)c1	-10%
COc1ccc(-c2onc(C)c2C(=O)NCCOc2ccccc2)cc1	-14%
Cc1noc(-c2cccc(F)c2)c1C(=O)NCCCN(C)c1ccccc1	-10%
COCCN(Cc1c(-c2ccccc2)noc1N1CCOCC1)C(=O)C1CCCC1	-15%
CC[C@H]1c2cccn2CCN1C(=O)CCc1cscn1	-22%
Cc1c(CCO)c(=O)n(C)n1C(=O)c1ccc(F)cc1	7%
CN(C(=O)[C@@H]1CCCN1C(=O)C1CCCC1)C1CCN(c2cnccn2)CC1	-7%
CC(C)(C)OC(=O)N1CCC(c2c(C(=O)Nc3ccc(Cl)cc3Cl)cnn2-c2cccc(F)c2)CC1	-3%
Cc1nc2nc(N3CCCCC3)sc2c(=O)[nH]1	15%
Nc1nonc1C(=O)N1CCCN(S(=O)(=O)c2cccs2)CC1	-21%
O=C(c1ccccc1)N1N=C(C(F)(F)F)C2CCCCCC21O (configuration not stated)	-10%
Cn1cc(N)c(Oc2ccc(F)cc2F)n1	10%
CN(C)c1ccc(C(=O)N2CC[C@H]3NC(=O)N(Cc4ccccc4)C(=O)[C@H]32)cc1	-5%
O=C(O)Cc1sc(-c2ccccc2)nc1O	9%
Cc1cc(NC[C@H](O)c2cnn(C)c2)ncc1Br	11%
CCOc1c(Br)cc(/C=C(/NC(C)=O)C(=O)O)cc1Br	13%
CCCc1cc(C(=O)N2CCCCCC2)cs1	-6%
Cc1cn([C@H]2C[C@@H](OC(=O)c3ccccc3)[C@@H](CO)O2)c(=O)[nH]c1=O	-3%

SMILES	% Inhibition
O=C(C[C@@H]1NC(=O)c2ccccc2NC1=O)NCc1ccc(Cl)cc1Cl	-6%
O=C(C[C@H]1CCC(=O)N(Cc2ccccc2)CC1)NC1CCN(Cc2ccccc2)CC1	6%
Cc1nn(C)cc1[C@@H]1CC(=O)Nc2c1cnn2C(C)(C)C	-21%
O=C(NC1CC1)N[C@H]1CCN(C(=O)C(C2CCC2)C2CCC2)C1	15%
COc1ccc(CCn2cc(C(N)=O)c(-c3ccccc3)n2)cc1	2%
Cc1ccc(-n2nnnc2-c2cnc3cc4c(cc3c2C)OCO4)cc1	-11%
Cc1cc(CNC(=O)c2csc(=O)[nH]2)n(C)n1	12%
COC(=O)c1cc(NC(=O)N2CCO[C@H](C(=O)OC)C2)c(F)cc1F	6%
CCCN(C(=O)c1nccnc1N)C1CC(OCC)C12CCCC2 (configuration not stated)	2%
CCOc1ccc(-[n+]2cc(-c3ccccc3)n3c2CCC3)cc1	70%
COc1ccc(NC(=O)Cn2cnc3nc(N4CCOCC4)ncc3c2=O)cc1	15%
CC[C@@](C)(C(=O)NC1CCCC1)N(Cc1ccco1)C(=O)c1ccc2c(c1)OCO2	-9%
COc1ccc(NC(=O)C2=Cc3cc(Cl)cc(OC)c3OC=C2)cc1	-1%
CN(C)c1nc(N)cc(-c2cccc3cccnc23)n1	55%
COc1ccc(CC[C@](C)(O)c2cc(C(N)=O)no2)cc1	-11%
COc1ccc(-c2c(C)nn3c(N4CCC(C(=O)NC5CC5)CC4)cc(C)nc23)cc1OC	16%
Cc1cc(F)c(C(=O)OCc2ccc3[nH]nnc3c2)cc1F	6%
C[C@H](NC(=O)c1cc(C2CC2)[nH]n1)c1nccs1	-5%
CCN1c2cc(C(=O)N3CCCCC3)ccc2C(=O)N2CCCCC[C@H]21	6%
O=C(Nc1ccc(N2CCOCC2)cc1)Nc1ccc(F)cc1F	7%
O=C(NCc1cc(F)cc(F)c1)c1csc(C(=O)N2CCCC2)n1	-9%
CCN(CCO)S(=O)(=O)c1ccc2c(c1)CCO2	-8%
Cc1cc(N(C)CCC2CC2)nc([C@H](C)N(C)CCC2CC2)n1	61%
O=C1OC(c2ccccc2)=NC1(Cc1ccc(Cl)cc1)Cc1ccc(Cl)cc1	4%
Cn1cccc1C(=O)N1CCCN(S(C)(=O)=O)[C@H]2CCC[C@H]2C(=O)NCC1	11%
COC(C)(C)c1nc(Cn2cnc3ccccc32)no1	6%
